The test system of the experiment is RAW cells. Description: cytoprotection of RAW cells exposed to H2O2 (viability). As to conditions: 0.1 μM, pre-treated 4 hours, H2O2 200 μM for 24 hours.

Data on two molecules can be found in patent US20130116284A1, “LIPOIC ACID AND NITROXIDE DERIVATIVES AND USES THEREOF” (RADIKAL THERAPEUTICS INC., priority 2010, published 2013).

Take `NC(=O)c1cccc2[nH]c(CCCCC3CCSS3)nc12` (centres unmarked) [compound 1, 2-(4-(1,2-dithiolan-3-yl)butyl)-1H-benzo[d]imidazole-4-carboxamide]: the “extent of recovery of viability” value is on record as 25%.
With `C[C@]1(c2nc3c(C(N)=O)cccc3[nH]2)CCCN1` [ABT-888], the “extent of recovery of viability” value is on record as 10%.
